# In the supplement of paper PMC12645437, “Orthogonal IMiD-Degron Pairs Induce Selective Protein Degradation in Cells” (ACS Chemical Biology, 2025):
# This is one part of the list.
# B1: Q9UKT9 (peptide)
# chain: FNCNVCGAKFTQKGNLLRHIKL
# B2: Q9UKT9 (peptide)
# chain: FHCNQCGRKFTQKGNLLRHIKL
# B3: Q9UKT9 (peptide)
# chain: FNCDQCGAQFTQKGNLLRHIKL
# B4: Q9UKT9 (peptide)
# chain: FTCEICGRVFTQKGNLLRHIKL
# B5: Q9UKT9 (peptide)
# chain: LMCPICGFPCTQKGNLLRHIKL
# B6: Q9UKT9 (peptide)
# chain: FECNQCGRRFTQKGNLLRHIKL
# B7: Q9UKT9 (peptide)
# chain: FCCPVCGARFTQKGNLLRHIKL
# B8: Q9UKT9 (peptide)
# chain: FDCEICGRSFTQKGNLLRHIKL
# B9: Q9UKT9 (peptide)
# chain: FFCNVCGAKFTQKGNLLRHIKL
# B10: Q9UKT9 (peptide)
# chain: FNCEICGALFTQKGNLLRHIKL
# B11: Q9UKT9 (peptide)
# chain: FSCNVCGAQFTQKGNLLRHIKL
# B12: Q9UKT9 (peptide)
# chain: FLCPICGAGFTQKGNLLRHIKL
# B13: Q9UKT9 (peptide)
# chain: FKCEQCGAYFTQKGNLLRHIKL
# B14: Q9UKT9 (peptide)
# chain: FECPVCGAGFTQKGNLLRHIKL
# B15: Q9UKT9 (peptide)
# chain: FWCEVCGAIFTQKGNLLRHIKL
# B16: Q9UKT9 (peptide)
# chain: FMCEICGAMFTQKGNLLRHIKL
# B17: Q9UKT9 (peptide)
# chain: FFCNVCGACFTQKGNLLRHIKL
# B18: Q9UKT9 (peptide)
# chain: FMCNVCGAMFTQKGNLLRHIKL
# B19: Q9UKT9 (peptide)
# chain: LRCNQCGFHCTQKGNLLRHIKL
# B20: Q9UKT9 (peptide)
# chain: LACEICGFRCTQKGNLLRHIKL
# B21: Q9UKT9 (peptide)
# chain: FNCEQCGAFFTQKGNLLRHIKL
# B22: Q9UKT9 (peptide)
# chain: FLCNQCGAKFTQKGNLLRHIKL
# B23: Q9UKT9 (peptide)
# chain: FLCEVCGANFTQKGNLLRHIKL
# B24: Q9UKT9 (peptide)
# chain: FNCNQCGRYFTQKGNLLRHIKL
# B25: Q9UKT9 (peptide)
# chain: FECNQCGARFTQKGNLLRHIKL
# B26: Q9UKT9 (peptide)
# chain: FGCDICGAFFTQKGNLLRHIKL
# B27: Q9UKT9 (peptide)
# chain: FTCEVCGAHFTQKGNLLRHIKL
# B28: Q9UKT9 (peptide)
# chain: FYCNQCGHSFTQKGNLLRHIKL
# B29: Q9UKT9 (peptide)
# chain: FECPVCGAQFTQKGNLLRHIKL
# B30: Q9UKT9 (peptide)
# chain: FWCPQCGAYFTQKGNLLRHIKL
# B31: Q9UKT9 (peptide)
# chain: FLCPVCGAPFTQKGNLLRHIKL
# B32: Q9UKT9 (peptide)
# chain: FACPQCGAGFTQKGNLLRHIKL
# B33: Q9UKT9 (peptide)
# chain: FACEVCGAGFTQKGNLLRHIKL
# B34: Q9UKT9 (peptide)
# chain: FYCDICGAGFTQKGNLLRHIKL
# B35: Q9UKT9 (peptide)
# chain: FCCPICGHRFTQKGNLLRHIKL
# B36: Q9UKT9 (peptide)
# chain: FQCNICGAPFTQKGNLLRHIKL
# B37: Q9UKT9 (peptide)
# chain: LRCEICGFMCTQKGNLLRHIKL
# B38: Q9UKT9 (peptide)
# chain: LTCNQCGFCCTQKGNLLRHIKL
# B39: Q9UKT9 (peptide)
# chain: FMCSVCGHCFTQKGNLLRHIKL
# B40: Q9UKT9 (peptide)
# chain: FLCPICGAFFTQKGNLLRHIKL
# B41: Q9UKT9 (peptide)
# chain: FGCNQCGAEFTQKGNLLRHIKL
# B42: Q9UKT9 (peptide)
# chain: FLCEICGAWFTQKGNLLRHIKL
# B43: Q9UKT9 (peptide)
# chain: FRCDICGAFFTQKGNLLRHIKL
# B44: Q9UKT9 (peptide)
# chain: FVCNQCGRYFTQKGNLLRHIKL
# B45: Q9UKT9 (peptide)
# chain: LLCEICGFTCTQKGNLLRHIKL
# B46: Q9UKT9 (peptide)
# chain: FLCPICGHPFTQKGNLLRHIKL
# B47: Q9UKT9 (peptide)
# chain: FSCDQCGAIFTQKGNLLRHIKL
# B48: Q9UKT9 (peptide)
# chain: FSCPICGHIFTQKGNLLRHIKL
# B49: Q9UKT9 (peptide)
# chain: FLCPICGHAFTQKGNLLRHIKL
# B50: Q9UKT9 (peptide)
# chain: FMCPICGHMFTQKGNLLRHIKL
# Target: no compound (DMSO)
# Assay: log2 fold change of degron read counts, EGFP-low vs EGFP+ sorted cells; higher = lower degron-EGFP level without compound (poor expression or instability)
# Details: compound: DMSO control; 18 h
# 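Further: jurkat cells carrying a lentiviral library of mutant zinc finger degrons fused to EGFP plus mCherry, mCherry+ cells FACS sorted, degron abundance counted by next-generation sequencing.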
row,Sequence,log2 fold change of degron read counts
1,B1,-0.613
2,B2,-1.06
3,B3,-1.55
4,B4,-0.463
5,B5,1.68
6,B6,-1.94
7,B7,-0.017
8,B8,-2.25
9,B9,-0.792
10,B10,-1.29
11,B11,-0.333
12,B12,0.284
13,B13,-2.35
14,B14,-0.774
15,B15,0.79
16,B16,-1.8
17,B17,0.484
18,B18,0.432
19,B19,1.34
20,B20,-0.0987
21,B21,-1.2
22,B22,-0.654
23,B23,-1.28
24,B24,1.27
25,B25,-2.15

row,Sequence,log2 fold change of degron read counts
1,B26,-0.554
2,B27,-1.44
3,B28,-0.429
4,B29,-0.954
5,B30,0.829
6,B31,0.601
7,B32,-0.567
8,B33,-1.53
9,B34,-0.733
10,B35,0.16
11,B36,0.118
12,B37,0.736
13,B38,0.612
14,B39,-0.0785
15,B40,0.873
16,B41,-0.28
17,B42,-0.558
18,B43,-1.07
19,B44,0.229
20,B45,-0.0491
21,B46,-0.14
22,B47,-0.399
23,B48,0.243
24,B49,-0.403
25,B50,0.921
